Results as given in paper PMC4336329 (PLoS ONE, 2015).
Among all 310,000 compounds or so, about 2,200 (0.71%) showed an effect of 50% or more. The effect is printed as a negative number. Some of the results follow.

The compounds below were run against human ether-à-go-go-related gene (hERG) potassium channel (human, UniProt Q12809) (assay: primary screen, population patch clamp on CHO cells stably expressing hERG).
Chain of human ether-à-go-go-related gene (hERG) potassium channel (Q12809 whole entry, looked up): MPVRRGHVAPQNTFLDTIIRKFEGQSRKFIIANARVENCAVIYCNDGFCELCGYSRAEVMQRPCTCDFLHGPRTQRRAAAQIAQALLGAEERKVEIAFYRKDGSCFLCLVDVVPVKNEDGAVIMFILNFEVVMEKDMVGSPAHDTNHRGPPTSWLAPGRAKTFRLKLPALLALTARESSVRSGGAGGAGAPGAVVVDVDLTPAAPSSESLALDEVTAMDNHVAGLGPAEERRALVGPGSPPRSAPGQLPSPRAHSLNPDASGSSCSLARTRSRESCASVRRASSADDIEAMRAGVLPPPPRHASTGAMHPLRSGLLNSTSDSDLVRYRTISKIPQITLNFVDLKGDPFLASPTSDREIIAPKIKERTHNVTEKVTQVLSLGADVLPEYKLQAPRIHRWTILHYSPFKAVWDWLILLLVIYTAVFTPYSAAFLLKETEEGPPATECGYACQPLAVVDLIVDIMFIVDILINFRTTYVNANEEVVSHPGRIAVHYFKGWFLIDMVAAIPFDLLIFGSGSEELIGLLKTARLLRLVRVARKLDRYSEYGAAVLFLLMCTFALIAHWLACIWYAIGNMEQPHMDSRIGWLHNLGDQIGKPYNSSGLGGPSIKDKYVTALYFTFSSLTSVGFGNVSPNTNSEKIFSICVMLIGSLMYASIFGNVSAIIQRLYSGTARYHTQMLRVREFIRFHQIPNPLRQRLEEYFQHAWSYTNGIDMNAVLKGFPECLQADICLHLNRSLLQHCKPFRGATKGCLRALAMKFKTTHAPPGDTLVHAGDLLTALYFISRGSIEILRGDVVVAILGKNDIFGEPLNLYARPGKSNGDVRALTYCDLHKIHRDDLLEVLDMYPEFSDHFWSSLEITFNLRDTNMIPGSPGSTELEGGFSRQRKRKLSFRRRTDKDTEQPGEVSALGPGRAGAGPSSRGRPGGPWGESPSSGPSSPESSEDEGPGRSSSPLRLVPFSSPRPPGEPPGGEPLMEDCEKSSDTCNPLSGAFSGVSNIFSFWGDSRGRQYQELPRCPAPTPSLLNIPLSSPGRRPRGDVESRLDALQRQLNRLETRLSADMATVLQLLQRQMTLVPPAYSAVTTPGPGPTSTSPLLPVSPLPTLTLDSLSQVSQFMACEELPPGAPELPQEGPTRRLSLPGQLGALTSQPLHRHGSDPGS

Row | Compound | hERG current change (%, negative = inhibition) at 1uM
1 | Cc1nn(CC(=O)Nc2ccc(N3CCOCC3)cc2)c(C)c1Cl | 19.7%
2 | CCOC(=O)c1c(NC(=O)CSc2n[nH]c(N)n2)sc(CC)c1C | 6.13%
3 | COc1cccc(N2CCN(C(=O)CCCCCNc3nc(=S)[nH]c4ccccc34)CC2)c1 | 5.35%
4 | CC(=O)c1c(C)[nH]c(C(=O)NCCc2cccc(C)c2)c1C | 6.72%
5 | CN(C)CC(C)(C)CN=Cc1c(O)[nH]c2ccccc12 | 0.641%
6 | CC(C)c1ccc(N(CC(=O)NCC2CCCO2)C(=O)CCC(=O)Nc2nccs2)cc1 (stereo not shown) | 13.1%
7 | CCOC(=O)/C=C/[C@H]1CCc2cccc(Cl)c2O1 | 14%
8 | Cc1cc2sc3nc(=O)n(-c4ccccc4)c(=O)n3c2cc1C | 9.81%
9 | CCOC(=O)CSc1nnc(CNC(=O)c2ccc(S(=O)(=O)N(C)C)cc2)n1C | 5.4%
10 | Cl.N=c1sccn1CC(=O)Nc1ccccc1-c1ccccc1 | 5.08%
11 | CCCNC(=O)c1ccc(N(Cc2ccccc2)S(C)(=O)=O)cc1 | -0.451%
12 | Cc1nn(-c2ccccc2)c(N)c1C1(O)C(=O)Nc2ccc([N+](=O)[O-])cc21 (stereo not shown) | 1.84%
13 | N#C/C(=C\c1cccc(O)c1)c1nc2ccccc2o1 | 14.5%
14 | Cc1cc(C)n(-c2nc3c(c(=O)[nH]c(=O)n3C)n2CC(O)COc2ccccc2C)n1 (stereo not shown) | -13.3%
15 | Cc1cccc(CCNS(=O)(=O)c2cnc[nH]2)c1 | -1.25%
16 | Cc1cc2nc(C3CCCN(C(=S)Nc4ccccc4C)C3)[nH]c2cc1C (stereo not shown) | 8.84%
17 | CC(C)Oc1ccc(C2CC(=O)N(Nc3ccc([N+](=O)[O-])cc3[N+](=O)[O-])C2=O)cc1 (stereo not shown) | 1.18%
18 | O=C1Nc2ccccc2C1c1ncc(C(F)(F)F)cc1Cl (stereo not shown) | 4.56%
19 | CC(=O)Nc1ccc(OCC(=O)NCCc2ccccc2)cc1 | 7.94%
20 | C/C=C/c1ccc(OCCCNC2CCCC2)c(OC)c1.O=C(O)C(=O)O | -22.2%

Row | Compound | hERG current change (%, negative = inhibition) at 1uM
21 | Nn1c(SCC(=O)N2CCN(S(=O)(=O)c3ccccc3)CC2)nnc1-c1cccs1 | 8.17%
22 | CCc1cccc(C)c1NC(=S)N(CCCN1CCN(C)CC1)Cc1cccs1 | 9.35%
23 | Cl.N=c1sccn1CC(=O)NCCc1ccc(Cl)cc1Cl | -7.67%
24 | CC(C)Sc1n[nH]c(=O)n1-c1cccc(C(F)(F)F)c1 | 10.4%
25 | CCN(CC)C(=O)C1CC(c2ccc(OC)cc2)=NO1 (stereo not shown) | 13.9%
26 | CCOC(=O)C1=C(COC(=O)CNC(=O)c2ccc(Cl)cc2Cl)NC(=O)NC1C (stereo not shown) | 11.6%
27 | Cc1cc(NCc2cccnc2)nc(N)n1 | 6.21%
28 | C[C@]12CCC(=O)CC1CCC1C2CC[C@]2(C)C(OC(=O)CCC(=O)O)CCC12 (stereo partly shown) | 9.84%
29 | CC(NS(=O)(=O)c1ccc([N+](=O)[O-])cc1)C(=O)NN (stereo not shown) | 13.7%
30 | Cc1nonc1C(=O)N/N=C/c1ccc(O)c(O)c1 | 8.03%
31 | COC(=O)Nc1nnc(-c2ccco2)s1 | 8.46%
32 | Cc1ccc(NC(=O)CSc2nc3ncc(Br)cc3[nH]2)cc1C | 15.1%
33 | Cc1cc(NC(=O)CCC(=O)N(c2ccccc2C)C(C(=O)NC2CCCC2)c2ccccc2)no1 (stereo not shown) | 20.7%
34 | CCCc1[nH]nc2c1C1(C(=O)N(C(C)C)c3ccccc31)C(C#N)=C(N)O2 (stereo not shown) | 10.6%
35 | CCCOC(=O)c1ccc(NS(=O)(=O)c2cccs2)cc1 | 8.05%
36 | CCn1cc(/C=C(/C#N)S(=O)(=O)c2ccccc2)cn1 | 11.6%
37 | CCn1c2ccccc2c2cc(CN3CCN(C(=O)c4ccco4)CC3)ccc21 | 15.9%
38 | Nc1cccnc1Oc1ccc(F)cc1F | 12.8%
39 | C=CCn1c(=NC(=O)CC)n(C)c2ccccc21.Cl | 2.21%
40 | O=C(c1cn(-c2ccccc2)nc1-c1cccnc1)N1CCN(S(=O)(=O)c2ccccc2F)CC1 | -23.8%

Row | Compound | hERG current change (%, negative = inhibition) at 1uM
41 | Cc1cc(C)cc(NC(=O)C2CCN(c3nccs3)CC2)c1 | 6.42%
42 | O=C(CSc1nnc2ccccn12)NNC(=O)c1ccc(F)cc1 | 16.3%
43 | CC(=O)NCc1ccc(S(=O)(=O)NC(C(=O)O)C(C)C)cc1 (stereo not shown) | 8.52%
44 | CC(=O)N1CCN(CC(=O)Nc2cc(F)ccc2C)CC1 | 3.98%
45 | Cc1cc(=O)oc2cc(OCC(=O)N3CCN(c4ccc(F)cc4)CC3)ccc12 | -2.46%
46 | CSc1nc2nc3c(cc2c(=O)n1-c1ccccc1)COC(C)(C)C3 | 8.2%
47 | CCOC(=O)N1CCN(C(=O)C(=O)Nc2sc3c(c2C(N)=O)CC(C)(C)OC3)CC1 | 19.2%
48 | Cc1ccnc(NS(=O)(=O)c2cccc([N+](=O)[O-])c2)c1 | 10.8%
49 | COc1ccccc1NC(=O)Cc1noc(CSc2n[nH]c(N)n2)n1 | 19.5%
50 | Cc1ccc(C(=O)N2N=C(c3ccccc3O)CC2c2ccccc2)cc1 (stereo not shown) | 7.78%
51 | Cc1ccc(S(=O)(=O)CCC(=O)OCC(=O)NC2CCS(=O)(=O)C2)cc1 (stereo not shown) | 8.32%
52 | CCOC(=O)n1c(=O)oc2ccccc21 | 6.68%
53 | CC(C)CN(CC(C)C)C(=S)Nc1ccc(Cl)cc1 | 6.61%
54 | O=C1CCCN2N=C(SCC(=O)Nc3cccc(Cl)c3)SC2=N1 | 8.46%
55 | Cc1ccc(S(=O)(=O)Nc2c(NC3CCCCC3)c3ccccc3oc2=O)cc1 | 11.6%
56 | Cc1cc(Cl)ccc1OC(C)C(=O)O (stereo not shown) | 10.5%
57 | CN(C)c1nc(SCCOC(=O)COc2ccc(Cl)cc2Cl)nc(N(C)C)n1 | -6.1%
58 | O=C(CCc1ccccc1)NC1CCCc2ccccc21 (stereo not shown) | 10.4%
